The campaign covered roughly 410,000 compounds. About 5,000 (1.2%) were called active. The shares of active, inactive and inconclusive entries below differ from those in the screen. Calls come from the whole dose curve; as a rule, active = well fitted inhibition curve with a large enough effect; inconclusive = small, poorly fitted or top-dose-only effect; inactive = no such curve, though single readings can be large or run the other way. Where the call is inconclusive, the potency comes from a doubtful curve fit.
Assay: qHTS for Inhibitors of TGF-b; note: nearly all actives have a fitted effect of over 65% in size
Settings: HepG2 CAGA-GFP TGF-b/SMAD3 reporter, GFP fluorescence, 18 h, TGF-beta stimulated, 500 pg/mL final; series mostly up to 46.1 µM; activity, negative = inhibition: at the top concentration
In short: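 Cell-based qHTS in HEPG2 carrying a CAGA-GFP Smad reporter; compounds added before 500 pg/mL final TGF-beta, 18 h incubation at 37 degrees C, GFP fluorescence quantified per cell by imaging cytometry.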
With `Cc1ccc(NC2=C/C(=N/S(=O)(=O)c3cccs3)c3ccccc3C2=O)cc1C` the “activity, negative = inhibition” value was inactive: -15.8%.
In the case of `O=C(O)CSCC(=O)Nc1ccccc1SCCS(=O)(=O)c1ccc(Cl)cc1`, the “activity, negative = inhibition” value is reported as inactive: 5.72%.
For `OC(COc1c(F)cc(Br)cc1F)CN1CCN(c2ccc(F)cc2)CC1` (centres undefined), the “activity, negative = inhibition” value was inactive: -19.3%.
With `Cn1nc(C(C)(C)C)cc1NC(=O)Nc1ccc(F)cc1F` the “activity, negative = inhibition” value was inactive: -0.561%.
For `CCCCCCSc1cc(-c2nc3ccc(C)cn3c2NCCCC)ccc1OC`, the Potency was inconclusive: 35.5 µM [inhibitor, single point].
In the case of `Cc1cc(NC(=O)CS(=O)(=O)c2cn(Cc3cccc(C(F)(F)F)c3)c3ccccc23)no1`, the Potency is reported as inconclusive: 11.2 µM [inhibitor, partial curve].
In the case of `COc1ccc(CNC(=O)O[C@]23C[C@H]4C(=O)N(c5ccccc5)C(=O)[C@H]4C[C@@]2(O)CN(S(=O)(=O)c2ccc(C)cc2)C3)cc1OC`, the “activity, negative = inhibition” value is reported as inactive: 4.66%.
For `O=C(NCc1ccccc1Cl)C1CCCN(C(=O)c2cnn(-c3ccccc3)c2-n2cccc2)C1` (centres undefined), the Potency was inconclusive: 11.2 µM [inhibitor, partial curve, poor fit].
With `CC1CN(Cc2csc(-c3ccc(Cl)cc3)n2)CC(C)O1` (centres undefined) the Potency was inconclusive: 22.4 µM [inhibitor, single point].
With `CCOC(=O)C1(C)CCCCCN1C(=O)c1ccccc1F` (centres undefined) the “activity, negative = inhibition” value was inactive: 1.97%.
For `COc1ccc(C(=O)NCc2ccccc2CN2CCCC2)cc1S(=O)(=O)N1CCOCC1`, the “activity, negative = inhibition” value was inactive: -15.9%.
In the case of `CCCCOc1ccc(CN2C(=O)C(=O)c3cc(Br)cc(C)c32)cc1OC`, the Potency is reported as active: 10 µM.
For `O=C(c1ccc2c(c1)OCO2)N1CCN(c2cccc(C(F)(F)F)c2)CC1`, the “activity, negative = inhibition” value was inactive: -26%.
In the case of `O=C(Cn1ncc2c3ccccc3n(Cc3ccccc3)c2c1=O)N1CCN(c2ccccn2)CC1`, the “activity, negative = inhibition” value is reported as inactive: -31.6%.
With `Cc1ccc(CN2CCc3nc(N4CCN(c5ccccc5F)CC4)ncc3C2)cc1C` the Potency was inconclusive: 14.1 µM [inhibitor, single point].
In the case of `Cc1cccc(C)c1-n1ncc(C(=O)Nc2ccc3c(c2)OCO3)c1C1CCN(C(=O)OC(C)(C)C)CC1`, the “activity, negative = inhibition” value is reported as inactive: -25.2%.
For `Clc1ccc(CNc2ncccn2)cc1`, the “activity, negative = inhibition” value was inactive: 16.5%.
For `OCCNc1nc2nonc2nc1NCCO`, the Potency was inconclusive: 14.1 µM [inhibitor, single point].
For `O=C(CCN1C(=O)CSc2ccccc21)Nc1ccc(OC(F)(F)F)cc1`, the Potency was inconclusive: 12.6 µM [inhibitor, single point].
For `CC(=O)OC1CC2(C)C(C(C)=O)CCC2C2CCC3=CC(=O)CCC3(C)C12` (centres undefined), the “activity, negative = inhibition” value was inactive: 0.301%.
With `COc1cccc(CNC(=O)CN(C)S(=O)(=O)c2ccc3[nH]c4c(c3c2)CCCC4)c1` the Potency was inconclusive: 35.5 µM [inhibitor, single point].
With `CCOC(=O)c1c(CSCc2ccccc2)oc2ccc(O)c(CN(C)C)c12` the Potency was inconclusive: 35.5 µM [inhibitor, single point].
With `COc1cc(S(=O)(=O)N2CCOCC2)ccc1NC(=O)COC(=O)CC12CC3CC(CC(C3)C1)C2` the Potency was inconclusive: 35.5 µM [inhibitor, partial curve, poor fit].
With `CC(C)(Oc1ccc(Br)cc1)C(=O)N1CCc2ccccc21` the “activity, negative = inhibition” value was inactive: 0.106%.
In the case of `CC(=O)c1ccc(Nc2cc(C)nc3c(C)cc(C)cc23)cc1`, the Potency is reported as active: 11.2 µM.
In the case of `COc1ccc(O)c(/C=N/NC(=O)c2ccc(CSc3nc(C)cc(C)n3)cc2)c1`, the Potency is reported as inconclusive: 0.501 µM [inhibitor, full curve].
With `CC(C)CCn1c(=O)c2sccc2n2c(CCCC(=O)NC(C)C)nnc12` the Potency was inconclusive: 0.794 µM [inhibitor, full curve, poor fit].
For `CC1(Oc2cccc(C#N)c2)CCN(Cc2ccc(-c3ccccn3)cc2)C1` (centres undefined), the “activity, negative = inhibition” value was inactive: -13.9%.
For `CC(C)(C)c1ccc(Cn2nnc3c(=O)[nH]c(C4CCCN(C(=O)c5cccs5)C4)nc32)cc1` (centres undefined), the Potency was inconclusive: 35.5 µM [inhibitor, single point].
In the case of `COc1ccc(-c2nc3c(C)cc(Br)cn3c2Cc2ccccc2)cc1OC`, the Potency is reported as inconclusive: 20 µM [inhibitor, partial curve, poor fit].
With `COc1ccc2c3c(cccc13)C(=O)N(O)C2=O` the Potency was inconclusive: 0.199 µM [inhibitor, full curve, poor fit].
With `N[C@@H](Cc1ccc(O)cc1)c1nnc([C@H](CO)NC(=O)C2CCNCC2)o1` the “activity, negative = inhibition” value was inactive: 12.4%.
With `Cc1ccc(NS(=O)(=O)c2ccc3c(c2)CC(C)N3C(=O)C2CCC2)cc1Cl` (centres undefined) the Potency was inconclusive: 35.5 µM [inhibitor, single point].
With `COc1cc2c(cc1OC)C(=O)N1[C@H]3c4cc(Cl)ccc4OC[C@@H]3[C@H](c3ccccc3)[C@]1(C)C(=O)N2` the Potency was inconclusive: 20 µM [inhibitor, single point].
With `NS(=O)(=O)c1ccc(NN=C2CCN(Cc3ccccc3)CC2)c([N+](=O)[O-])c1` the “activity, negative = inhibition” value was inactive: -2.82%.
With `Cc1ccc(Cc2c(-c3ccccc3)nc3cc(C)c(Br)c(C)n23)cc1` the Potency was inconclusive: 35.5 µM [inhibitor, single point].
In the case of `CCOc1ccc(NC(=O)c2ccc(NC(=S)NC3CCCCC3)cc2)cc1`, the Potency is reported as inconclusive: 11.2 µM [inhibitor, partial curve, poor fit].
In the case of `CCOC(=O)c1ccc(NC(=O)c2nc[nH]c2C(=O)N[C@@H](Cc2ccccc2)C(=O)OC(C)(C)C)cc1`, the Potency is reported as inconclusive: 12.6 µM [inhibitor, partial curve, poor fit].
In the case of `Cc1ccc2occ(CC(=O)Nc3ccc(Cl)c(C(F)(F)F)c3)c2c1`, the Potency is reported as inconclusive: 14.1 µM [inhibitor, single point].
In the case of `COc1ccc(C(=O)NC(Nc2ccccc2)C(Cl)(Cl)Cl)cc1` (centres undefined), the “activity, negative = inhibition” value is reported as inactive: 0%.
In the case of `Cc1ccc(C)c(N2N=C(C(=O)OCc3nnc(-c4ccccc4Br)o3)CCC2=O)c1`, the “activity, negative = inhibition” value is reported as inactive: 2.25%.
For `C[C@H](O)[C@@H]1C(=O)N2CCc3ccc(-c4cccc(F)c4)cc3[C@@H]2C[C@@H]1N(C)C(=O)C(C)(C)C`, the “activity, negative = inhibition” value was inactive: -22.1%.
In the case of `COc1ccc(C(=O)NNc2ncnc3c2cnn3-c2ccc(C)cc2C)cc1`, the Potency is reported as inconclusive: 35.5 µM [inhibitor, single point].
With `CN(C(=O)c1ccc2c(c1)N(Cc1ccc(F)cc1)C(=O)c1ccccc1S2(=O)=O)C1CCCCC1` the Potency was inconclusive: 0.447 µM [inhibitor, full curve, poor fit].

— PubChem BioAssay AID588855 (National Center for Advancing Translational Sciences (NCATS), 2011)
% is set by controls: 0 for no effect and ±100 for the full control effect; potency is the fitted concentration of half-maximal effect; tags give direction and shape of the fitted curve.
